# The supplement of paper PMC3334620
# In all, about 33,000 sequences were measured (“E-score (-0.5 to 0.5)”: median about -0.012, highest 2% from about 0.27 on). The list shows a part of the results.
# Molecular target: T1, Vhr1 (UniProt P40522)
# T1 sequence: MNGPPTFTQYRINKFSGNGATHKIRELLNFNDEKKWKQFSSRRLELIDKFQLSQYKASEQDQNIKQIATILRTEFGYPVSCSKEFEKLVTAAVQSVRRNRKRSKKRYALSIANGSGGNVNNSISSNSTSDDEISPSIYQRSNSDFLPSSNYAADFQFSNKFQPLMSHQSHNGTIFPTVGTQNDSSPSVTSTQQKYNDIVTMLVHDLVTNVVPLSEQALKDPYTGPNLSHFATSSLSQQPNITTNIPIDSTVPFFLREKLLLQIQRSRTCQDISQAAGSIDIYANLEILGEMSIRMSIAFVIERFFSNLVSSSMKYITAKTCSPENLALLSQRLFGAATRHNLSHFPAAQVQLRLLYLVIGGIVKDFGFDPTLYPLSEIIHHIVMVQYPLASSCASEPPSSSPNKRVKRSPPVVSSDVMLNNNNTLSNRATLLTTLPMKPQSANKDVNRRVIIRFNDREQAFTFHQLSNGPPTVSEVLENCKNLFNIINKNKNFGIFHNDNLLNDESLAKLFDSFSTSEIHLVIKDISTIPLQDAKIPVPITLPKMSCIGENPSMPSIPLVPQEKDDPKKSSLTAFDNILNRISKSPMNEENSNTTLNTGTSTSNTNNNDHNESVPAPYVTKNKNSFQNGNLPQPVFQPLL
# Experiment: PBM E-score (8-mer binding enrichment) (E-score (-0.5 to 0.5)); higher = stronger / more preferred TF binding; most listed sequences are background and not binding sites
# Conditions: protein concentration: 200 nM; construct: GST-full length
# Protocol: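 Universal 'all 10-mer' protein binding microarrays (Agilent AMADID 015681) probed with GST-tagged S. cerevisiae TFs (full-length or DBD) made by in vitro transcription/translation (PURExpress), about 100-200 nM. Bound TF was detected with fluorescent anti-GST. Each ungapped 8-mer (which stands for itself and its reverse complement) is scored by the PBM enrichment score (E-score), a modified Wilcoxon-Mann-Whitney statistic from -0.5 to +0.5, computed with the Universal PBM Analysis Suite. Scale: above 0.35 generally sequence-specific binding.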
row,Sequence,PBM E-score
1,ACCTACAA,-0.0961
2,CTCGACTC,0.19
3,GAGCTTAA,-0.111
4,CTTCCACC,-0.113
5,CCGGTACG,-0.118
6,AGGAGTAA,0.0927
7,GCACTCGA,0.00258
8,CCTTGGCG,-0.0852
9,CGAATAGA,-0.0883
10,ACTTATTA,0.135
11,ACCAGTTC,-0.0486
12,CATAAGCG,-0.164
13,ATCTAGTA,0.0526
14,GTCCGTAA,-0.134
15,CCGGAGAA,-0.0476
16,CGTGTGAC,0.0881
17,GCCATCCA,0.00671
18,ATCAGGGA,-0.153
19,AAGTTGGC,-0.0804
20,ATGCTATG,0.138
21,GCTGTTCC,-0.178
22,ACTCTAAG,-0.173
23,CGATTGCA,0.0006
24,ACTAGTCG,0.184

row,Sequence,PBM E-score
1,CCCCTTAG,-0.123
2,AACAACCC,-0.0107
3,CTGTCCTA,-0.0746
4,GATTCGTA,0.209
5,CATCGAAG,0.0487
6,AATTCTGG,-0.15
7,ATTCGTGC,0.141
8,ACTCATTC,0.367
9,GTATATTA,0.0991
10,CGCTATCC,-0.0309
11,AGGTCTAC,-0.0342
12,TCTCCAAA,-0.113
13,AAAGGCTT,-0.189
14,AATGTTGA,0.043
15,TGATAGAA,-0.115
16,GATTCTTA,0.00158
17,AAGTGCTG,-0.164
18,ATTTAATG,0.122
19,ATGTAGCC,0.0229
20,ACATTGGA,-0.0768
21,ACGAAGCT,-0.0843
22,AGAGCCGC,0.128
23,CCGCAACA,-0.0255
24,CGCATCAG,0.118

row,Sequence,PBM E-score
1,CCGTTCTA,-0.064
2,CGCGCCAA,-0.0215
3,TGAAGGAA,-0.212
4,ACGGGTCG,0.157
5,ATATCACC,0.125
6,GCTGATCA,0.0474
7,TATTGAAA,0.0665
8,ATTCTTGA,-0.0575
9,ATTGCCCG,-0.0258
10,AGCGCTGA,-0.152
11,CATGGCAG,0.159
12,ATCAACCA,0.162
13,CCGAGCCG,0.109
14,CCGGTTAC,0.0565
15,ATGATCAA,0.145
16,GGTCCTAC,-0.137
17,ATTCGTCC,0.156
18,ATATACGA,-0.191
19,CGCAGCGC,-0.149
20,ATAGCGAC,-0.0153
21,ACATGTCT,0.111
22,AAAGTGAG,0.0765
23,AGAGGGCA,-0.208
24,GCGCCCAC,-0.0258

row,Sequence,PBM E-score
1,ACGAAACT,-0.0732
2,CTAGTGGA,-0.162
3,AATGCTAC,0.072
4,CGCATTCA,0.0842
5,GTCTCTTA,-0.233
6,AAGCAACG,-0.00241
7,GAACCGCA,0.194
8,AACCTAGA,-0.0515
9,ATGACTGA,0.368
10,GCGCGGCC,-0.157
11,ACGCCCTG,0.0701
12,CATGCGCA,0.159
13,AATGGGCT,0.0797
14,TGGGGTAA,0.0316
15,CCGACGCA,-0.137
16,AACCGGAA,0.00223
17,ACCCAATA,-0.0437
18,AGCGCTGC,-0.213
19,CAACACAA,-0.0309
20,ATAACATG,0.0371
21,GATAATAC,0.144
22,ATACATAT,0.367
